± gives the standard error. This sample is rich in variants without activity.
B1: glmS ribozyme (parent)
chain: AUAAAAGCGCCAGAACUACAGAAAUGUAGUUGACGAGGAGGAGGUUUAUCGAAUUUUCGGCGGAUGCCUCCAAA

Key:
Details in all cases: with glucosamine-6-phosphate
[1] = variants of: B1; assay: self-cleavage kobs at 40 uM GlcN6P; higher = faster cleavage; RNA array
In short: (§1)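 Ribozyme variants carrying barcodes were transcribed in situ on sequenced MiSeq chips by E. coli RNA polymerase and tracked at 37 °C with a hybridised Cy3 probe. They were exposed to 40 μM to 10 mM glucosamine-6-phosphate in HEPES/KCl/Mg(OAc)2 buffer. kobs came from exponential decay fits of normalised per-tile medians, and kcat and KM from weighted Michaelis–Menten fits.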

[2] = variants of: B1; assay: self-cleavage kobs at 10000 uM GlcN6P; higher = faster cleavage; RNA array
In short: as §1

[3] = variants of: B1; assay: self-cleavage kobs at 640 uM GlcN6P; higher = faster cleavage; RNA array
In short: as §1

[4] = variants of: B1; assay: self-cleavage kobs at 160 uM GlcN6P; higher = faster cleavage; RNA array
In short: as §1

[5] = variants of: B1; assay: self-cleavage kobs at 2500 uM GlcN6P; higher = faster cleavage; RNA array
In short: as §1

Variant	self-cleavage kobs at 40 uM GlcN6P [1]	self-cleavage kobs at 10000 uM GlcN6P [2]	self-cleavage kobs at 640 uM GlcN6P [3]	self-cleavage kobs at 160 uM GlcN6P [4]	self-cleavage kobs at 2500 uM GlcN6P [5]
C11G G62C A64G C68G	< 1e-05 s⁻¹	< 1e-05 s⁻¹			
C10A C67G C68A	< 1e-05 s⁻¹				
C10U G60U C67U	< 1e-05 s⁻¹	< 1e-05 s⁻¹	< 1e-05 s⁻¹	< 1e-05 s⁻¹	
A12U C16A U45G C71G	< 1e-05 s⁻¹				
G13U G29U A39C G59C	< 1e-05 s⁻¹				
G13U U49C	< 1e-05 s⁻¹	< 1e-05 s⁻¹	< 1e-05 s⁻¹		< 1e-05 s⁻¹
C10G A33U	< 1e-05 s⁻¹	< 1e-05 s⁻¹	< 1e-05 s⁻¹	< 1e-05 s⁻¹	< 1e-05 s⁻¹
C10U U65A	< 1e-05 s⁻¹	< 1e-05 s⁻¹	< 1e-05 s⁻¹	< 1e-05 s⁻¹	< 1e-05 s⁻¹
C11G A52U	< 1e-05 s⁻¹	< 1e-05 s⁻¹	< 1e-05 s⁻¹	< 1e-05 s⁻¹	< 1e-05 s⁻¹
C11G A52C	< 1e-05 s⁻¹	< 1e-05 s⁻¹	< 1e-05 s⁻¹	< 1e-05 s⁻¹	< 1e-05 s⁻¹
C10A G62A	< 1e-05 s⁻¹				
C10U A52G A64U	< 1e-05 s⁻¹				
C11G U30C G35U G62C	< 1e-05 s⁻¹				
G13A C68A	< 1e-05 s⁻¹				
C11U A36C U45G	< 1e-05 s⁻¹	< 1e-05 s⁻¹			
C10U A64G C68A	< 1e-05 s⁻¹				
C11A U31C G51U	< 1e-05 s⁻¹				
C10U G32U A64C	< 1e-05 s⁻¹	< 1e-05 s⁻¹			
G13U A42G G60U A64U C71U	< 1e-05 s⁻¹				
C10G C16G	< 1e-05 s⁻¹	< 1e-05 s⁻¹		< 1e-05 s⁻¹	< 1e-05 s⁻¹
C10A G13U U30C G43C A52U	< 1e-05 s⁻¹	< 1e-05 s⁻¹			
A12U C34U G41U G66C	< 1e-05 s⁻¹	< 1e-05 s⁻¹			< 1e-05 s⁻¹

Variant	self-cleavage kobs at 40 uM GlcN6P [1]	self-cleavage kobs at 10000 uM GlcN6P [2]	self-cleavage kobs at 640 uM GlcN6P [3]	self-cleavage kobs at 160 uM GlcN6P [4]	self-cleavage kobs at 2500 uM GlcN6P [5]
A12C G13U U47A U56A	< 1e-05 s⁻¹				
A12G G41U A52G U54A	< 1e-05 s⁻¹				
C11A G38A	< 1e-05 s⁻¹	< 1e-05 s⁻¹	< 1e-05 s⁻¹	< 1e-05 s⁻¹	< 1e-05 s⁻¹
C11G A12C A64U	< 1e-05 s⁻¹	< 1e-05 s⁻¹			< 1e-05 s⁻¹
G13A G43C	< 1e-05 s⁻¹		< 1e-05 s⁻¹	< 1e-05 s⁻¹	
G13A G29A G44U C68U	< 1e-05 s⁻¹		< 1e-05 s⁻¹		
C11A A33G	< 1e-05 s⁻¹				
C10G U49G	< 1e-05 s⁻¹		< 1e-05 s⁻¹	< 1e-05 s⁻¹	
C10G U49A	< 1e-05 s⁻¹		< 1e-05 s⁻¹		
C10U C67A	< 1e-05 s⁻¹				
C11U G51C	< 1e-05 s⁻¹	< 1e-05 s⁻¹			< 1e-05 s⁻¹
C10U C50A U69C	< 1e-05 s⁻¹				
C11G G62C	< 1e-05 s⁻¹	< 1e-05 s⁻¹		< 1e-05 s⁻¹	
A12U A36U C50A U69G	9.31e-05 ± 2.3e-05 s⁻¹				
C10A A42G	< 1e-05 s⁻¹		< 1e-05 s⁻¹	< 1e-05 s⁻¹	
C10U A53G	< 1e-05 s⁻¹	1.69e-05 ± 7.4e-06 s⁻¹			
C11A A36G	< 1e-05 s⁻¹	< 1e-05 s⁻¹	< 1e-05 s⁻¹	< 1e-05 s⁻¹	
C10G G37U G40U	< 1e-05 s⁻¹		< 1e-05 s⁻¹		
G13C U46A	< 1e-05 s⁻¹		< 1e-05 s⁻¹	< 1e-05 s⁻¹	
C10G C61A	< 1e-05 s⁻¹				
C10G A14G	< 1e-05 s⁻¹			< 1e-05 s⁻¹	
A12U U31A G37U C71A	< 1e-05 s⁻¹	< 1e-05 s⁻¹			

Variant	self-cleavage kobs at 40 uM GlcN6P [1]	self-cleavage kobs at 10000 uM GlcN6P [2]	self-cleavage kobs at 640 uM GlcN6P [3]	self-cleavage kobs at 160 uM GlcN6P [4]	self-cleavage kobs at 2500 uM GlcN6P [5]
C11U G40C	< 1e-05 s⁻¹				
C10U C11U G44A U45A U65G	< 1e-05 s⁻¹				
A12C G38C	< 1e-05 s⁻¹	< 1e-05 s⁻¹			
G13A A48C	< 1e-05 s⁻¹		< 1e-05 s⁻¹		
A12U G29A G41A C50A C67A	< 1e-05 s⁻¹				
C11G	< 1e-05 s⁻¹				
A12C U49A	< 1e-05 s⁻¹			< 1e-05 s⁻¹	
G13U C34A U49A U65C	< 1e-05 s⁻¹	< 1e-05 s⁻¹			
C10U U45A	< 1e-05 s⁻¹				
A12G C61U C70U	< 1e-05 s⁻¹				
C11U G35U G41C G63A	< 1e-05 s⁻¹				
C11G U30A	< 1e-05 s⁻¹				
G13U G29C G43C	< 1e-05 s⁻¹		< 1e-05 s⁻¹		
G13C A33C U55C U69G	< 1e-05 s⁻¹	< 1e-05 s⁻¹	< 1e-05 s⁻¹		< 1e-05 s⁻¹
C10G A33G G43C	< 1e-05 s⁻¹	< 1e-05 s⁻¹			
A12G G44A	< 1e-05 s⁻¹			< 1e-05 s⁻¹	
C10A A12G G63U	< 1e-05 s⁻¹				
G13U A53G G62A	< 1e-05 s⁻¹				
C10A A12U G32C	< 1e-05 s⁻¹				
A12C A64U	< 1e-05 s⁻¹			< 1e-05 s⁻¹	
G13C A15C G40C G41U A52U	< 1e-05 s⁻¹				
G13C A39C	< 1e-05 s⁻¹		< 1e-05 s⁻¹	< 1e-05 s⁻¹	

Variant	self-cleavage kobs at 40 uM GlcN6P [1]	self-cleavage kobs at 10000 uM GlcN6P [2]	self-cleavage kobs at 640 uM GlcN6P [3]	self-cleavage kobs at 160 uM GlcN6P [4]	self-cleavage kobs at 2500 uM GlcN6P [5]
G13U G63U C71G	< 1e-05 s⁻¹				
C11U A48U	< 1e-05 s⁻¹		< 1e-05 s⁻¹	< 1e-05 s⁻¹	
C11U G44A	< 1e-05 s⁻¹		< 1e-05 s⁻¹	< 1e-05 s⁻¹	
C11U G44C	< 1e-05 s⁻¹	< 1e-05 s⁻¹	< 1e-05 s⁻¹	< 1e-05 s⁻¹	
G13C A33U	< 1e-05 s⁻¹	< 1e-05 s⁻¹	< 1e-05 s⁻¹	< 1e-05 s⁻¹	
A12U G44C C68U	< 1e-05 s⁻¹				
C11U C58G	< 1e-05 s⁻¹				
A12C G35U	< 1e-05 s⁻¹				
C11G G35A U55G	< 1e-05 s⁻¹	< 1e-05 s⁻¹			
G13U G29A G44U U55G	< 1e-05 s⁻¹	< 1e-05 s⁻¹			
G13A A36U	< 1e-05 s⁻¹	< 1e-05 s⁻¹	< 1e-05 s⁻¹	< 1e-05 s⁻¹	< 1e-05 s⁻¹
G13A A36G	< 1e-05 s⁻¹	< 1e-05 s⁻¹	< 1e-05 s⁻¹	< 1e-05 s⁻¹	< 1e-05 s⁻¹
G13U A36G	< 1e-05 s⁻¹	< 1e-05 s⁻¹	< 1e-05 s⁻¹	< 1e-05 s⁻¹	< 1e-05 s⁻¹
C10A U49G	< 1e-05 s⁻¹		< 1e-05 s⁻¹	< 1e-05 s⁻¹	< 1e-05 s⁻¹
C11G G37A	< 1e-05 s⁻¹	< 1e-05 s⁻¹		< 1e-05 s⁻¹	< 1e-05 s⁻¹
A12U C71U	0.00207 ± 0.00018 s⁻¹	0.0826 ± 0.025 s⁻¹	0.0214 ± 0.0049 s⁻¹	0.00891 ± 0.0017 s⁻¹	0.0611 ± 0.02 s⁻¹
A12C C71G	4.39e-05 ± 8.5e-06 s⁻¹				
C11A G32A A39U	< 1e-05 s⁻¹		< 1e-05 s⁻¹		
C10G G51C C58A	< 1e-05 s⁻¹	< 1e-05 s⁻¹	< 1e-05 s⁻¹		
A12U A48G C68A	< 1e-05 s⁻¹				
C11G G38C	< 1e-05 s⁻¹		< 1e-05 s⁻¹		< 1e-05 s⁻¹
A12U C61G	< 1e-05 s⁻¹				

Variant	self-cleavage kobs at 40 uM GlcN6P [1]	self-cleavage kobs at 10000 uM GlcN6P [2]	self-cleavage kobs at 640 uM GlcN6P [3]	self-cleavage kobs at 160 uM GlcN6P [4]	self-cleavage kobs at 2500 uM GlcN6P [5]
G13U G38C C71A	< 1e-05 s⁻¹				
C11G G35C C67A	< 1e-05 s⁻¹	< 1e-05 s⁻¹			< 1e-05 s⁻¹
C10G A12G	< 1e-05 s⁻¹		< 1e-05 s⁻¹	< 1e-05 s⁻¹	
C11U A14G G60U C70U	< 1e-05 s⁻¹				
C10G A52G	< 1e-05 s⁻¹	< 1e-05 s⁻¹			< 1e-05 s⁻¹
C11A G51U	< 1e-05 s⁻¹	< 1e-05 s⁻¹	< 1e-05 s⁻¹		
C10A A15C	< 1e-05 s⁻¹		< 1e-05 s⁻¹	< 1e-05 s⁻¹	< 1e-05 s⁻¹
A12U G44C U65A	< 1e-05 s⁻¹				
C10G U31A	< 1e-05 s⁻¹			< 1e-05 s⁻¹	< 1e-05 s⁻¹
C11G A14G	< 1e-05 s⁻¹				
A12C G37U G66U	< 1e-05 s⁻¹				
A12G G29A	< 1e-05 s⁻¹				
A12G A52U C61U	< 1e-05 s⁻¹				
A12U U49C U57A G62U	< 1e-05 s⁻¹	< 1e-05 s⁻¹			
C11A U47G	< 1e-05 s⁻¹				
G13A U57C	< 1e-05 s⁻¹				
C10U G13A A15U G63U	< 1e-05 s⁻¹		< 1e-05 s⁻¹		
G13C A14U G60U	< 1e-05 s⁻¹	< 1e-05 s⁻¹			
C11G G63C	< 1e-05 s⁻¹	< 1e-05 s⁻¹	< 1e-05 s⁻¹		< 1e-05 s⁻¹
G13A C16U A64U	< 1e-05 s⁻¹		< 1e-05 s⁻¹		
C11G U56A	< 1e-05 s⁻¹		< 1e-05 s⁻¹		< 1e-05 s⁻¹

Reference: the supplement of paper PMC7125110
